Reference: PubChem BioAssay AID493208 (National Center for Advancing Translational Sciences (NCATS), 2011)
About 340 (0.77%) of roughly 44,000 compounds were called active. Another 5% or so got no clear call; they are omitted. Calls follow the shape of the dose curve; as a rule, active = well fitted inhibition curve with a large enough effect; inconclusive = small, poorly fitted or top-dose-only effect; inactive = flat fitted curve, though single readings scatter. The list shows a part of the results.

Assay: Acumen qHTS Assay for Inhibitors of the mTORC1 Signaling Pathway in MEF (Tsc2-/-, p53-/-) Cells: Sytravon;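 also: plate controls were DMSO for no effect and rapamycin for full effect; nearly all actives have a fitted effect of over 50% in size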
Settings: phospho-rpS6 immunofluorescence/PI, 24 h; series mostly up to 38.3 µM; activity change, negative = inhibition: at the top concentration
Summary of the method: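 Tsc2-/-, p53-/- mouse embryonic fibroblasts (empty-vector line) exposed to compound 24 hrs at 37 C, fixed, immunostained for phospho-rpS6 and counterstained with propidium iodide. Acumen laser scanning gives % positive cells from Alexa 488/PI ratio, thresholded using 7.5 nM rapamycin; PI count gives viability.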

Activity change, negative = inhibition, inactive:
Cc1sc(-c2cc3ccccc3oc2=O)nc1-c1ccc(Cl)c(Cl)c1 0.495%, CCOc1ccc(CNCc2c(C(=O)O)c(C)n(Cc3ccc(C)cc3)c2C)cc1 -0.419%, Cc1nnc(N2CCCC(C(=O)NCCN(C)C)C2)c2nn(-c3ccccc3)c(C)c12 (configuration not stated) 0%, CCOc1ccccc1OCCCCn1c(-c2ccc(Cl)cc2)nc2ccccc2c1=O 5.63%, O=S(=O)(Nc1ccc(-c2ccc(N3CCCC3)nn2)cc1)c1ccc(C(F)(F)F)cc1 -25.9%, Cc1ccc(-n2ncc3c(N(C)C)ncnc32)cc1Cl -1.17%, CCC(Sc1nc(-c2ccccc2)[nH]c1S(=O)(=O)c1ccc(C)cc1)C(=O)O (configuration not stated) -4.57%, Cc1cc(=O)n(Cc2ccc(F)cc2Cl)c2c1c(C)nn2C -15.5%, CC(C)c1ccc(-c2noc(SCC(=O)N3CCCCC3C)n2)cc1 (configuration not stated) -2.77%, O=C(NCCCN1CCN(c2ccc(F)cc2)CC1)c1cc2c(Cl)nc3ccccc3c2s1 -2.68%, Cc1cccc(-c2nc(CCNC(=O)c3ccc(Br)o3)cs2)c1 1.42%, Cc1cc(C)cc(OC(=O)c2cc(-c3ccc(Cl)cc3)on2)c1 -7.35%, CCOc1ccc(NC(=O)c2c(NCc3cccnc3)sc3c2CCC(C)C3)cc1 (configuration not stated) -16.5%, CC(=O)c1sc(NC(=O)c2c(-c3ccccc3)c(-c3ccccc3)nn(C)c2=O)nc1C -4.49%, CCN1CCN(C(=O)c2cnn(-c3ccc(F)cc3F)c2C2CCN(C(=O)OC(C)(C)C)CC2)CC1 -0.658%, CCN(CC)C(=O)Cn1c(=O)n(-c2ccc(C)c(C)c2)c(=O)c2c(C)c(C(=O)N(CC)CC)sc21 -0.467%, CCCCCN1C(C(=O)c2ccccc2)=C(NC(=O)c2ccc(C)cc2)c2ccccc2S1(=O)=O 3.95%, CC1CCc2onc(C(=O)N3CCN(c4ccc(F)cc4)CC3)c2C1 (configuration not stated) -6.69%, CC1CCC(N2CC(=O)N(CCC3=CCCCC3)C(c3ccc(F)cc3)C2=O)CC1 (configuration not stated) 10.5%, COc1ccc(OC)c(NC(=O)c2cnc(Nc3ccc(C)c(Cl)c3)c3ccccc23)c1 -13.2%, COc1cc(Cl)c(NC(=O)CCc2nc3cccnc3n2-c2ccccc2)c(OC)c1 4.08%, CC(=O)Nc1c(C)nn(-c2ccccc2)c1N1CCC(C(=O)NCc2cccc(Cl)c2)CC1 5.8%, CC1=C(C(=O)Nc2ccc(Cl)cc2)C(c2cccs2)n2nc(SCc3cccc(C)c3)nc2N1 (configuration not stated) 4.32%, O=C(NCCc1nc2ccccc2n1Cc1c(F)cccc1Cl)c1ccco1 -2.6%, O=C(CSc1nc2cc3ccccc3cc2[nH]1)Nc1ccc(F)cc1 -3.55%, CC(C)(C)OC(=O)N1CCC(c2c(C(=O)N3CCN(c4ccccc4F)CC3)cnn2-c2ccccc2Cl)CC1 7.2%, Cc1ccc(NC(=O)c2cnc(SCC(=O)N3CCCc4ccccc43)n(C)c2=O)cc1 -2.39%, CCOc1ccc(NC(=O)CCNS(=O)(=O)c2ccc3c(c2)CCCC(=O)N3)cc1 2%, CC(=O)N1CCc2cc(S(=O)(=O)NC(CC(C)C)C(=O)NCc3ccccc3Cl)ccc21 (configuration not stated) -0.461%, Cc1c(NC(=O)c2cc(-c3ccccc3O)on2)c(=O)n(-c2ccccc2)n1C 10.4%, CCOC(=O)CCC(=O)Nc1nnc2n1CCS2 1.31%, O=c1c(NCc2ccccc2Cl)nccn1-c1ccccc1 8.54%, Cc1ccc(C(=O)Nc2nnc(S(=O)(=O)N3CCCCCC3)s2)cc1 -0.631%, COc1ccc(CNC(=O)CCc2c(C)c3cc4c(C)c(C)oc4cc3oc2=O)cc1 1.84%, CCCCCOc1ccc(Cn2c(=O)oc3ccc(C)cc32)cc1OC -10.9%, CCC(=O)N1CCc2cc(Br)cc(S(=O)(=O)N3CCC(C(=O)Nc4ccccc4F)CC3)c21 -17%, Cc1cc(C)cc(C(=O)n2nc(C)c(S(=O)(=O)N3CCCCCC3)c2C)c1 -2.4%, O=C(Nc1ccc(Cl)cc1Cl)c1cc(S(=O)(=O)N2CCCCCC2)ccc1F 9.63%, O=C1CC(c2cc(F)cc(F)c2)c2cc3c(cc2N1)OCO3 (configuration not stated) -23.4%, Cc1c(C(=O)N2CCN(c3ccc(F)cc3)CC2)sc2nc3n(c(=O)c12)CCC3 -8.69%, O=C(Cn1ccn(-c2ccc(F)cc2)c(=O)c1=O)Nc1ccccc1C(F)(F)F 3.84%, CCCCc1nn2c(=O)cc(COC(=O)c3ccccc3NC(=O)c3cccs3)nc2s1 3.41%, CCCOc1ccc(NC(=O)CC2C(=O)N(c3ccc(C)cc3)C(=O)N2CCc2ccncc2)cc1 (configuration not stated) -10.4%, CC(C)Cn1c(C2CC(=O)N(c3ccccc3Cl)C2)nc2ccccc21 (configuration not stated) -2.7%, Cc1cccc(NC(=O)Cn2nnc(C(=O)NCc3ccco3)c2N)c1 1.42%, Cc1oc(-c2ccc(C(=O)NCCN(C)C)cc2)nc1CS(=O)(=O)c1ccccc1 -5.28%, O=C(Cn1nc(-c2ccccc2)nc(Cc2ccccc2)c1=O)Nc1ccc(Cl)cc1 -3.28%, Cc1cccc(-n2c(N)cc(=O)nc2SCC(=O)Nc2ccc(F)cc2)c1C 1.51%, COc1ccc(Br)cc1C(=O)Nc1ccc(-c2nc3ncccc3o2)cc1C -0.45%, Cc1ccc(C(=O)NCC(=O)OCc2cc(=O)n3ccsc3n2)cc1 -11.3%, CCc1ccc(NC(=O)CSc2ccc3nc(-c4ccc(OC)cc4)cn3n2)cc1 3.58%, COC(=O)CSc1nc2sc3c(c2c(=O)n1-c1ccc(C)cc1)CC(C(C)C)OC3 (configuration not stated) -4.42%, CCN(CC)S(=O)(=O)c1ccc2c(c1)N(CC(=O)Nc1ccc(OC)cc1)C(=O)CS2 -0.141%, Cc1ccccc1CNC(=O)c1oc2c(c1C)-c1nn(Cc3ccc(Cl)cc3)cc1CC2 3.12%, CCOc1ccc(NC(=O)C2CCCN(c3cnccn3)C2)cc1 (configuration not stated) 4.6%, CCOc1ccc(Cl)cc1CNCCCSc1nnnn1C -0.349%, COC(=O)c1ccccc1NC(=O)c1cnn(-c2ccc(F)cc2)c1-n1cccc1 1.22%, Cc1ccc(CN(C(=O)COc2ccccc2[N+](=O)[O-])c2ccccn2)cc1 0.0128%, CCCN(CCC)CCNC(=O)CN1C(=O)COc2ccc(S(=O)(=O)N3CCOCC3)cc21 2.75%, Cc1cccc(OCC(=O)NCCc2nc3ccccc3[nH]2)c1C -1.18%, O=C(NCc1ccccc1Cl)C1CCN(C(=O)N2CCOc3ccccc32)CC1 13.9%, CCC(CC)C(=O)Nc1nnc(S(=O)(=O)N2CCc3ccccc32)s1 1.83%, CCOc1ccc(-n2nc(CO)c(C(=O)NCc3ccccn3)n2)cc1 4.2%, Cc1ccc(OCCCCn2cnc3ccccc32)cc1 -1.95%, CCN(CC)S(=O)(=O)c1ccc2c(c1)nc(CN(C)C(=O)Nc1ccc(F)cc1)n2C 0%, O=C(Nc1ccc(C(=O)N2CCCCC2)cc1)c1nsc2ccccc12 0.839%, COc1cc(Cl)c(C)cc1NC(=O)CCc1c(C)nc2c3cccnc3nn2c1C -16.1%, O=C(Nc1nc2n(n1)C(c1ccccc1)C=C(c1ccccc1)N2)c1ccccc1 (configuration not stated) -5.32%, CS(=O)(=O)c1ccccc1-c1nnc(NC(=O)c2ccc3c(c2)OCCO3)o1 -12.3%, COc1ccc(CNC(=O)CSc2n[nH]c(-c3ccc(F)cc3)n2)cc1 -5.93%, Cc1ccc(C)c(CN2C(=O)c3ccccc3S(=O)(=O)c3ccc(C(=O)Nc4cc(F)ccc4F)cc32)c1 -13.1%, COc1ccc(NC(=O)c2nnn(CC(=O)Nc3c(C)cc(C)cc3C)c2N)cc1OC 6.24%, Fc1ccc(Nc2nc(SCc3cccc(Cl)c3)nc3ccccc23)cc1 -10.2%, COc1ccc(CNC(=O)CN(c2ccc(C)cc2)S(=O)(=O)c2c(C)noc2C)cc1 -0.828%, COc1ccc(CNC(=O)C(CCSC)NS(=O)(=O)c2ccc3c(c2)oc(=O)n3C)cc1 (configuration not stated) -6.51%, Cc1cc(C)cc(NC(=O)CSc2nc3c([nH]c4ccccc43)c(=O)n2-c2ccc(F)cc2)c1 -3.34%, CNC(=O)C(=O)NCC(c1ccc2c(c1)OCO2)N1CCOCC1 (configuration not stated) -2.94%, CCOc1ccc(-c2cc(NC(=O)c3cccc(Cl)c3)c(C(=O)OC)s2)cc1 -1.81%, CC1=C(C(=O)Nc2ccccc2)C(c2ccc(C)cc2)n2nc(SCc3ccccc3C)nc2N1 (configuration not stated) -6.55%, CCCOc1ccc(C(=O)Nc2nonc2-c2ccc(OCC)cc2)cc1 -5.91%, COc1ccc(CNC(=O)C2=C(C)C(=O)OC23CCCCC3)cc1OC -0.0621%, O=C(c1ccc(F)cc1F)N1CCC(c2nc(-c3ccc(S(=O)(=O)N4CCCC4)cc3)no2)CC1 2.95%, CCOC(=O)c1ccc(NC(=O)c2cn(-c3ccccc3)nc2-c2ccc(C)cc2)cc1 -0.454%, CCCc1ccc(S(=O)(=O)N2CCC(c3nnnn3-c3ccc(OC)cc3)CC2)cc1 -0.116%, Cc1oc2cc3oc(=O)c(CC(=O)N4CCCCC4)c(C)c3cc2c1C 0.158%, CCOc1cc(C#N)c(NC(=O)c2ccc(OC)c(S(=O)(=O)N3CCN(c4ccccc4)CC3)c2)cc1OCC 0.673%, CCCOc1ccc(CNC(=O)c2oc3ccc4c(c3c2C)C(=O)CC(C)(CC)O4)cc1 (configuration not stated) 2.4%, CSc1nc(-c2ccccc2Cl)nc2c1Cc1c(CO)cnc(C)c1O2 2.72%, COc1ccc(CNC(=O)Cn2c(=O)c3cccn3c3ccccc32)cc1 -3.86%, CCc1nnc2c(N3CCN(c4cccc(C(F)(F)F)c4)CC3)nc3ccccc3n12 -1.22%, COc1cccc(CNc2ncnc3onc(C)c23)c1 -2.66%, O=C(Cn1c(=O)n(Cc2ccco2)c(=O)c2oc3ccccc3c21)Nc1ccc(F)c(Cl)c1 0.712%, CNc1ccc(-c2nc(-c3ccccc3C)no2)cc1[N+](=O)[O-] 1.18%, c1ccc(-c2cc3ncc4c(n3n2)-c2ccccc2OC4)cc1 0.888%, COc1ccc(C2=C(C(C)=O)Sc3nnc(-c4ccc(Cl)cc4)n3N2C(C)=O)cc1OC 2.39%, CN1CCN(CCCNC(=O)c2cnn(-c3ccc(F)cc3)c2-n2cccc2)CC1 -7.18%, O=C(Nc1c(C(=O)N2CCN(c3ccccc3F)CC2)oc2ccccc12)c1ccco1 0.981%
